# Reference: the supplement of paper PMC11417369
# This is one part of the list.
# Test system: PfHDP1 homeodomain (GST-tagged)
# Experiment: gcPBM binding intensity (ln(normalized median fluorescence intensity)); higher = stronger DNA binding
# Outline: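 An Agilent 4 × 180k array of primer-extended double-stranded 36-bp intergenic genomic probes, with negative controls, was incubated for 1 h with GST-tagged P. falciparum DNA-binding domains expressed in E. coli. Alexa488 anti-GST antibody detected bound protein, scanned at 488 nm. Binding intensity is the highest Masliner-normalised natural-log median intensity across replicate spots of either probe orientation.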
row,Sequence,gcPBM binding intensity (ln)
1,TTAATTCTACTTATTACACACATATTAATCAAAAAT [CACACA_site1478],6.74
2,ACTATACAGTTATACACACACATATATATATAATAT [CACACA_site310],7.29
3,TTTTTTTTTTAATAAAGTACATATAAATTACCTAAT [XGTACX_site4434],5.98
4,AGGTTAAAAATAAATACACACATTTTATGTCTGTAT [CACACA_site996],6.38
5,ATTTCTAGTTTAAGATGTACTTTAATAAAAATTATT [XGTACX_site4820],6.12
6,ATCTTTGGAAATTTATGTACTTATATTTATATTGTA [XGTACX_site6606],6.49
7,AAATATCAACAAAAATGTACAAATGTAAAAGAATAT [XGTACX_site4676],6.84
8,ATGGAAGGAAACAATAAAAAAAAAAAAAAATATATA [XGTACX_negctrl_site594],6.02
9,CATTTAAAGGACAAGCTGCACTTACAAAATAAAAAA,6.44
10,TTTTTTATTTGACAAGCACACACTTAAATATATATA [CACACA_site3358],6.54
11,AATGACAACCTTGTCACACATATATATATATATATA [CACACA_site5977],9.42
12,AAATGAGTATTCATATGTACACAAATAAAAAATTAA [XGTACX_site2968],6.49
13,AAAATCCACATTTTAGTACACACTTAAAAAATTATT [CACACA_site2955],6.22
14,GAACATACTCAAATAGCACACACATAAATAAAAATG [CACACA_site9283],7.48
15,TATATATATATAATATGTACATATAATCAACATTTT [XGTACX_site3915],8.45
16,TTATATATATATATATGTACGAAAAAGAAAAAAAAG [XGTACX_site6761],6.63
17,ATTTTTATATAATGAACACACATATTATATCATTTA [CACACA_site1572],6.51
18,AAAAGAAAATAAGAAACACACAAAAATATGTAAAAA [CACACA_site7694],6.48
19,TTAGTCATATATATATGTACACACATATATATATTT [XGTACX_site2948],6.37

row,Sequence,gcPBM binding intensity (ln)
1,TATATATATATATATACACACATATATATAAATATA [CACACA_site2035],9.27
2,TTAAAAAAAAGACACACACACATACACATATTTATA [CACACA_site7535],6.99
3,CACAAAAGTAAGCACGCACACACAACCTGAAATAAA [CACACA_site166],6.9
4,AAAAAAAAATACATATGTACATATACATATATATAT [XGTACX_site2975],8.7
5,ATATTATATAAATATACACACATTGTTTTATAGCAT [CACACA_site2386],6.94
6,ATATATTTAATTTATGGTACACATAATTTTTTTAGA [XGTACX_site848],6.45
7,ATAAAATATAAAAAAAGTACAAAAAAAAAAAAAAAA [XGTACX_site6657],6.27
8,TAGTAATATATATTTTGTACATAAAATAATATATAA [XGTACX_site7971],6.27
9,CGTTATTATCCACATACACACAGGAATAAAAAATTA [CACACA_site2883],6.69
10,ATTTGAAATGCATGAACACACACAGCTATAAATGCA [CACACA_site8229],6.43
11,TATATATGTTAAAACGTGCACATATATATATATATA [GTGCAC_site9589],10.1
12,ATATTGACAAATATTACACACATATATAAATATGTA [CACACA_site7835],6.47
13,CCATAGATATTTTATACACACATATAACATATTAAT [CACACA_site6312],6.69
14,ATATAATATTACACAAGTACAAAAATTAATACTAAA [XGTACX_site482],6.23
15,ATTTATTTTAATATATGTACATATATTTTTTTATTA [XGTACX_site3389],6.6
16,ATATATGCATATTATACACACATATGTATATACATT [CACACA_site965],7.81
17,ACCCATGATTGTTACAGTACTCTACTTTCTAATATA [XGTACX_site98],7.11
18,AAACTGTCGCTCATAAAGAAGAATGAAATACATTAA [TGCATGCA_negctrl_site60],6.09
19,TGGAGGTCAGTTCACAGTACCCAGGAAATCTACGGA [XGTACX_site1995],5.93

row,Sequence,gcPBM binding intensity (ln)
1,TTTTCTGTATATTGTGTGCACACAATTAACAAAAAA [GTGCAC_site9817],10.6
2,AAAAAAAAAAAAAATGCACACAATGGCTAGCTGTAC [CACACA_site2273],9.44
3,ATACATTTATTGTATTGTACATAATATTATATATTC [XGTACX_site7115],6.55
4,TATTTTAAAAAAAAAAGTACACATAATATATATAAC [XGTACX_site5416],6.79
5,TAATATAATGATGCAGTGCATATGTTAAAATGAAAA,8.68
6,TAATATAATAGAAGTGTACACACATATTTATGGGTG [CACACA_site9023],6.86
7,ATATTTATGGAAAAAGAACACACAATCAAACAAAAA [CACACA_site9233],7.06
8,TCAAAAGAATAATTGGTGCAAATTATATAATATAAT [GTGCAC_site9804],10.5
9,CTTTTTTATATCTCTACACACATTTATAACCATTTG [CACACA_site4897],7.06
10,ATATATATATATTCCACACACACACCCAAAAAAAAA [CACACA_site3649],8.67
11,ACAAAATAAACCACGTGTACAAATTTATAATGTGTA [XGTACX_site1153],6.55
12,ATAAAATATTAGACATTTATTAATATTACACATATC [XGTACX_negctrl_site364],6.15
13,TTTTATTTTTTATTTGCACACAATATGTAAAAAAAT [CACACA_site2927],10.6
14,ATTAAATGCACATATACACACACCCAATTTTAAGTT [CACACA_site3049],11.3
15,AAAAAAAAAAAAAACACACACACACCCACATATACA [CACACA_site2663],6.78
16,TATAAGGTGTCCTATACACACTCCAATAAATATATA [CACACA_site2091],6.34
17,AGGAACATAAGCAATGTATAAACATAAAACTATAAT [CACACA_negctrl_site1832],6.46
18,TAAAGAGAAAAACATACACACACAACAAAATATGTA [CACACA_site8872],6.79
19,TATTAATTAAACCATACACACATAACTTTTTTATAA [CACACA_site6526],6.43
